The target of this test is recombinant YFV E protein (soluble E, sE; YFV Asibi strain) (Yellow fever virus, Asibi strain). In words: BLI monovalent (IgG on tip).

B1: ADI-50536 (antibody, V domains shown)
VH: QVQLVESGSELKKPGASVKVSCKASGYTFTSYAMNWVRQAPGQGLEWMGWINTNTGNPTYAQGFTGRFVFSLDTSVSTAYLQISSLKAEDTAVYYCVRGYCSSTSCYGGLYWFDPWGQGTLVTVSS
VL: DIRVTQSPSSLSASVGDRVTIT[about 80 residues not given here]FGGGTKVDIK
Turning to B1, the Kd is over 100 nM.

Values taken from patent publication US20240218054A1.
